The list shows a part of the results.

The subject of this assay is PfAP2-HC AP2 domain (GST-tagged). As to the kind of experiment: gcPBM binding intensity (ln(normalized median fluorescence intensity)); higher = stronger DNA binding. A digest of the protocol: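 Alexa488 anti-GST antibody, scanned at 488 nm, detected GST-tagged P. falciparum DNA-binding domains that had been expressed in E. coli and incubated for 1 h on an Agilent 4 × 180k array. The array carried primer-extended double-stranded 36-bp intergenic genomic probes and negative controls. Binding intensity is the highest Masliner-normalised natural-log median intensity across replicate spots of either orientation of each probe.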
As to “CTTTAAATTAATAAAAGTACATTATTTATATATTTT [XGTACX_site4808]”, the “gcPBM binding intensity (ln)” value was determined as 9.51.
The same measure for “ATAACAAAAAAAAAGGTGCTACAAAATGAATAAAAA [GTGCAC_site9659]”: 9.83; for “ATATTTTATTTTAATACACACAAGTTATATAACCAC [CACACA_site6508]”: 9.77.
With “TACATATATATATATGTACACACATTAATAAAAAAA [CACACA_site9058]”, the “gcPBM binding intensity (ln)” value is 9.82.
Turning to “AATATAAATAATTATACACACTTAATATATATATAC [CACACA_site5533]”, the “gcPBM binding intensity (ln)” value was 9.77.
The same measure for “ATTTATGTTAATAAGTGTACAATAAATTTTTTTTAT [XGTACX_site7658]”: 9.51; for “AACATATATAAATACACACACATATATATATGAAAT [CACACA_site4312]”: 10.2.
With TATTAATTTAAATGGGTGCAAAACCTATATAAATAT the figure was 9.51.
“TTATTTTATTTTTGTGCACACTGATAAATTGAAAAG [CACACA_site2949]”: the “gcPBM binding intensity (ln)” value is 9.73.
The same measure for “TAAAAGTTCACCTGTACACACATATAAATATGTACA [CACACA_site6901]”: 9.77; for “CGTTTTCTATATCATTGTACATATTCATGTGTAAAT [XGTACX_site2741]”: 9.85; for “AACAGACGAAGACACACACACATATATATATATATA [CACACA_site1020]”: 10.2.
The same measure for “ATTAATAAATTCAATTGTACTTGTTTATACATAAAA [XGTACX_site3733]”: 9.35; for “TTGTTTAAGTCACGAACACACATATATCATCAATTT [CACACA_site986]”: 9.81; for “GTTTGAATGGCGCACTGTACACATATATACATATAG [XGTACX_site8619]”: 10.
The same measure for “ATTTATGAAAAATGTACACACATCAAATGCTTATAT [CACACA_site4068]”: 9.94; for “ACAAAATTATGTAGATGTACAGACATAGAAAGAGAT [XGTACX_site3096]”: 10.3.
For “TTATGGTGCAACATTATGCACACCGTTAAATAACTA [CACACA_site3846]”, the “gcPBM binding intensity (ln)” value was 9.48.
In the case of “ATTTATTTTGTTGTTGTTTTTATTTGATTGTTTTAT [CACACA_negctrl_site1275]”, the “gcPBM binding intensity (ln)” value was determined as 10.1.
With “TTATGTGTATAGGTTTGTACATAAAATGATGTATAG [XGTACX_site1401]” the figure was 9.68; with “TCATGGAATATTTAAAGTACAAAAAGTGTTCTTTAC [XGTACX_site715]”, 9.47.
For “TAGTCATATATATATGTACACACATATATATATTTA [CACACA_site8413]”, the “gcPBM binding intensity (ln)” value came to 9.73.
The same measure for “TATATATATATGTGTACACATGTCGCATTTTTTTAT [CACACA_site4648]”: 10.2; for “GATATTATAAAATAAAAATAAATCATTTCTATTCAT [CACACA_negctrl_site334]”: 9.49; for “ACATATATGGAGCTTATACACACTTTTATATTTTAA [CACACA_site3854]”: 9.67.
For the sequence “TTATCATATAATTATTGTACTAAAAAAAAAGCGAGT [XGTACX_site3086]”, the “gcPBM binding intensity (ln)” value came out at 9.62.
The same measure for “TTTTAAATATGCCATACACACTACTCTATAATAAAT [CACACA_site6987]”: 9.7.
Turning to “ATATATTATGGGTGTGCACACAATATTTATATGTTC [CACACA_site2270]”, the “gcPBM binding intensity (ln)” value was 10.4.
As for “TTATAATAAATATATAAAAAAAAAAAAAAAAAAAAA [CACACA_negctrl_site1639]”, the “gcPBM binding intensity (ln)” value was found to be 8.65.
As to “TGATAGCACCTTATATGTACATATAATATATTATTA [XGTACX_site837]”, the “gcPBM binding intensity (ln)” value came to 9.75.
The same measure for “TTTTCTTATAAATGAAGTACAAAAAAAAAATATATA [XGTACX_site1352]”: 9.37; for “AAGGTATAATATATTTGTACATATACATTTTTGAAT [XGTACX_site6493]”: 9.73; for “TGAAAAATGTAATGCTCACACATATATATATATATA [CACACA_site5213]”: 9.62.
With “GATTTTAATGGGTGTACACATTTATTTATATAAAGT [CACACA_site5317]” the figure was 9.74; with “TAATATGTTTATGGTAACATACAAAAATGTATATAT [GTGCAC_negctrl_site204]”, 9.54.
With “TATTTTTTATTTTAAATCCTCTGATATTTAATTTGT [TGCATGCA_negctrl_site84]” the figure was 9.56; with “TATCCCCTTGTCCATATTAATTGTGACATCATATAT [XGTACX_negctrl_site9]”, 9.84.
Take “ATGTGTATATATATGTGTACATAATTTGTGTTATTC [XGTACX_site2509]”: the “gcPBM binding intensity (ln)” value amounted to 9.79.
The same measure for “GTGTCTTTTATTAAATGTACATATTCATAGATAAAA [XGTACX_site8578]”: 9.44.
The same measure for “TTATTTTTTTGGAATTCACACACAAAAAAAAAAATA [CACACA_site8650]”: 9.65; for “AATTGAGAAGTGTGTTGTACATAATGGCACATACCT [XGTACX_site1370]”: 9.82.
With “TAGAATGAAAAAAAAGCATGCGGGCAAAAATTTTTA [TGCATGCA_site926]” the figure was 9.82; with “ACCTTAAAAATAACTGCACACAAAAATAAATACCTT [CACACA_site8902]”, 10.2; with “ACGTAAACATGTAGAAGGCATTACACAATGGTATAC [TGCATGCA_negctrl_site512]”, 9.89.
For the sequence “TTATGGTGCATGAAATCACACATTGATATATATGCT [CACACA_site5352]”, the “gcPBM binding intensity (ln)” value was 9.62.
“ATATATATATATATATGTACATATATATATTATATT [XGTACX_site6303]”: the “gcPBM binding intensity (ln)” value came to 9.66.
With “ACATTTAAATAATATGTGCACAGCTATATTTTCTTT [GTGCAC_site9562]” the figure was 9.85.
The same measure for “CTAATCGTGCACAACTGTACATTTGTCAAGGGCAAT [XGTACX_site8662]”: 9.62.
The same measure for “ATAAAAATCTTTAGTAGTACATTATAAAAAACTATT [XGTACX_site5531]”: 9.44; for “TTTTTAATATATATCACACATATATATTTTTAATTA [CACACA_site6099]”: 9.5.
In the case of “ATGTGAACATTCAATGCACACGATGTAATTATACAT [CACACA_site15]”, the “gcPBM binding intensity (ln)” value stood at 9.86.
With “AACATATATTAGCTTACATGCAAAAAGTAAAAAAAT [TGCATGCA_site10]” the figure was 9.74; with “AAAACATCAAAAATGTGTACATATATATATATATAT [XGTACX_site8884]”, 9.64; with “ATATATATATATGCATGTACATATTTATCTTTATAT [XGTACX_site232]”, 10.
The same measure for “AATTTAAAACGGAGATGTACATATATAAATATATAC [XGTACX_site3723]”: 9.79.
The same measure for “CGGCTATTTCTATATACATGCATTTAAAAAAAAAAT [TGCATGCA_site354]”: 9.39; for “AAAAAAAAAATGAGCACACATAAATAAAAACAAACA [CACACA_site1573]”: 10.2.
Turning to “ACCTATTTCAAACACACACACACACTAACAAACATA [CACACA_site8233]”, the “gcPBM binding intensity (ln)” value stood at 10.8.
On to “AGTTATTTTAAATGTAGTACACAAAAGAAATATTAA [XGTACX_site4092]”, for which the “gcPBM binding intensity (ln)” value was 9.58.
Turning to “CATAAATTAAAACACACACACACAAAAAAAAAAAAA [CACACA_site2262]”, the “gcPBM binding intensity (ln)” value is 11.6.
With “ATATTATATATATACACACACACATGCATGCACATA [CACACA_site7917]”, the “gcPBM binding intensity (ln)” value was determined as 10.3.
The same measure for “TAAAATTTGCGATGCACACAGAATAGCTAATATGAC [CACACA_site2995]”: 10.
With “TATTTTCTCGTTTGCATGCACCTTATTTTATGTGGT [GTGCAC_site9470]” the figure was 10.1; with AAATTCTGCATCGAGGTGCGCCATAAAAATTGTGGT, 9.55.
The same measure for “TACTAAAACCCATACACACACATATTTATAGTACCA [CACACA_site7484]”: 10.6; for “TATACAATATATATAACACACATATTTATATAAAAT [CACACA_site5061]”: 9.81; for “AAAATACCATTTGAAACACACAAAAAAAAAAAAAAT [CACACA_site2981]”: 10.1.
Turning to “CAGTTGGAAGGAAAGTGTACATAAAAAAAAATATAA [XGTACX_site8784]”, the “gcPBM binding intensity (ln)” value stood at 9.58.
As for “AACATAAAAATTGAAGCACACACACTAATGAAATAC [CACACA_site8287]”, the “gcPBM binding intensity (ln)” value worked out at 10.6.
Regarding “ACAAATCTATAAGAGTGTACGAACAGTAAAGGAATT [XGTACX_site2070]”, the “gcPBM binding intensity (ln)” value was found to be 9.96.
The same measure for “ATAAAAATTAAAAGGAGTACTTAAATATTAAGATGG [XGTACX_site4815]”: 9.69; for “TTTAAAAATATATATTGTACATATATATATCTATGA [XGTACX_site3556]”: 9.4; for “TACTATTTAAAATTTGAACACACATTATTTATTTTA [CACACA_site9020]”: 9.7.
“AAAAAAAAAAAAAAGACACACAATGTGAAATAATAA [CACACA_site804]”: the “gcPBM binding intensity (ln)” value was 9.98.
The same measure for “AATATATTTCGAGATACACACATATATAAAAAAAAA [CACACA_site3398]”: 9.77.
The same measure for “AATAGAACAAATAAAACACACACATATATATATATA [CACACA_site8893]”: 10.1; for “AAAATAAAATAAAATACACACATACATACATACAAA [CACACA_site5366]”: 10.2.
The same measure for “CAATAAAGAGGGAATTGTACTTTAAATATCCCTCTT [XGTACX_site1991]”: 9.5.
As for “ATATATCACAATAAAATTTATAGAATTTTAAATAAG [TGCATGCA_negctrl_site437]”, the “gcPBM binding intensity (ln)” value was found to be 9.29.
With “GTTCAATCGGGTGTTACTTCAAACAAGGAACAACAA [TGCATGCA_negctrl_site471]” the figure was 9.56.
For “ATAGTAAATATAAAAAGTACTGATTCTTAAATTGTT [XGTACX_site5972]”, the “gcPBM binding intensity (ln)” value was found to be 9.7.
Regarding “TATTTTATTGTTGTTATACACACCATATAAAATATT [CACACA_site1630]”, the “gcPBM binding intensity (ln)” value came out at 9.77.
The same measure for “ACTTGACACCAACACACACACATATATAAAAAAAAA [CACACA_site756]”: 11; for “TTTTAAAGAAAATATTTTATCATTATTTTTTGTACT [CACACA_negctrl_site1648]”: 9.57; for “TTTTAAAATTTTTTTTTTTTTTTTTTATGAACAAGT [GTGCAC_negctrl_site124]”: 9.22.
Take “AATATTTTAAATATTGCATGCAATGAAAAATGTAAA [TGCATGCA_site139]”: the “gcPBM binding intensity (ln)” value worked out at 9.64.
The same measure for “TCTTATTTTTTTATATATACAAAGTTTTATATATAT [GTGCAC_negctrl_site314]”: 9.68; for “ATATATTGATATATGTGTACATAGCTTATTTCATTT [XGTACX_site1800]”: 9.74.

The values above are taken from the supplement of paper PMC11417369.
